Source: patent US20220135678A1, “METHODS AND COMPOSITIONS TO IMPROVE THE SAFETY AND EFFICACY OF CELLULAR THERAPIES” (University of Southern California, priority 2019, published 2022)

Legend:
HSPCs = assay: In vitro myeloid differentiation of control or CD33-AMR HSPCs, phagocytosis; type: cell-based, human; conditions: differentiated in vitro with myeloid cytokines
Text: Human cells obtained from HSPC-engrafted mouse bone marrow show characteristic morphologic features of normal stem cell (blast), myeloid progenitor (promyelocyte), and terminal effector cells (monocytes and neutrophils).

Molm14, an AML cell line = assay: NSG mice engrafted with HSPCs, injected with Molm14 AML, treated with CD33 CAR-T; conditions: mouse, in vivo
Protocol: AML disease burden is measured by bioluminescent imaging (BLI), while human HSPCs are measured by flow cytometry of the peripheral blood.

human CD34+ cells = assay: Engraftment of control or CD33-AMR HSCs in NSG mice; type: in vivo
Protocol: More detailed functional evaluation of AMR HSCs is performed in comparison with control HSC in vivo. […] Cell morphology is analyzed by cytospin and characteristic cell surface markers (CD1 lb, CD 15, CD 14, CD 16, CD45, CD66b, and HLA-DR) by flow cytometry.
Twelve weeks later, the percentage of hCD45 in peripheral blood (engraftment) is measured. […] Bone marrow is harvested from NSG mice after 16 weeks of primary engraftment then transferred into secondary recipients and analyzed after 12 additional weeks.

B1: CD33-AMR: antigen masking receptor targeting CD33 expressed in CD34+ stem cells by lentiviral gene transfer (protein)
chain: MALPVTALLLPLALLLHAARPDEIVLTQSPGSLAVSPGERVTMSCKSSQSVFFSSSQKNYLAWYQQIPGQSPRLLIYWASTRESGVPDRFTGSGSGTDFTLTISSVQPEDLAIYYCHQYLSSRTFGQGTKLEIKRGGGGSGGGGSGGGGSQVQLQQPGAEVVKPGASVKMSCKASGYTFTSYYIHWIKQTPGQGLEWVGVIYPGNDDISYNQKFQGKATLTADKSSTTAYMQLSSLTSEDSAVYYCAREVRLRYFDVWGQGTTVTVSSTRAKPTTTPAPRPPTPAPTIASQPLSLRPEACRPAAGGAVHTRGLDFACDIYIWAPLAGTCGVLLLSLVITLYCKRGRKK
HSPCs
  phagocytosis percentages versus control HSPCs: No significant differences
Molm14, an AML cell line
  myeloid cells in peripheral blood, spleen and bone marrow after CD33 CAR-T treatment of AML: persistent CD 14+ myeloid cells
Human CD34+ cells; bone marrow harvested after 16 weeks
  human CD45+ engraftment in bone marrow versus control: equal levels
Human CD34+ cells; mouse, in vivo
  CD33 expression on human myeloid cells in engrafted mice: significantly reduced
  myeloid development in engrafted NSG mice: normal myeloid development
